Source: the supplement of paper PMC3334620
Whole data set: some 33,000 sequences, median “E-score (-0.5 to 0.5)” near -0.035, cut for the highest 2% near 0.34. The list shows a part of the results.

target: T1, Mot3 (UniProt P54785); assay: PBM E-score (8-mer binding enrichment) (E-score (-0.5 to 0.5)); higher = stronger / more preferred TF binding; most listed sequences are background and not binding sites; conditions: protein concentration: 200 nM; construct: GST-full length
T1 sequence: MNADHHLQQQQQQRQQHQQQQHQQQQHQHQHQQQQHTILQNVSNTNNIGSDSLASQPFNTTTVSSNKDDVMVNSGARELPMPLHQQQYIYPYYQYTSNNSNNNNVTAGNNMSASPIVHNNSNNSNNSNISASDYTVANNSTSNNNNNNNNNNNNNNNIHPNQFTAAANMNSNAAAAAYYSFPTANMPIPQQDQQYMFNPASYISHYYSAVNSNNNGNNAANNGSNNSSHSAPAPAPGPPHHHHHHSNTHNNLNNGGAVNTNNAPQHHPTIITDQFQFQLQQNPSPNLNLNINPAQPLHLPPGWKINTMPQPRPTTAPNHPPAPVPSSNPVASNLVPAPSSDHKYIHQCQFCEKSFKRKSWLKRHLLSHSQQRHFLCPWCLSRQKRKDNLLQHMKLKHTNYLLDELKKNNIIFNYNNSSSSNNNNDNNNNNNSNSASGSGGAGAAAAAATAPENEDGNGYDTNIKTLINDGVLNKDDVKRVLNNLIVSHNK
How it was run: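 Full-length yeast transcription factors or their DNA-binding domains, GST-tagged and expressed with PURExpress, were applied at about 100-200 nM to universal all-10-mer Agilent arrays. These arrays had been made double-stranded by primer extension on fresh or once-stripped slides. Detection used fluorescent anti-GST, normalisation used masliner, and E-scores for ungapped eight-base words pooled with reverse complements came from the Universal PBM Analysis Suite.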

| Sequence | PBM E-score |
| --- | --- |
| AACACAAA | 0.22 |
| ACAGTCAA | 0.0247 |
| ATGCGTCC | -0.143 |
| GGACGCAA | -0.294 |
| ATAGTAAC | 0.0835 |
| TAACAGTA | 0.0732 |
| CTCGAACC | -0.164 |
| CACAGGAG | 0.0555 |
| CTGTGTGC | 0.085 |
| CGCTACGA | -0.063 |
| CGTGCCCC | 0.00946 |
| GAAACTAC | 0.139 |
| CCTCCAGC | -0.32 |
| ATATACAT | 0.324 |
| AGGTATTG | 0.129 |
| ACGACCTC | 0.101 |
| ATTGTTTA | 0.0804 |
| GAACACTA | 0.0431 |
| CATTGTAG | 0.106 |
| CTTGTTCC | 0.163 |
| CAGGCTAG | -0.29 |
| ACGCACGA | 0.275 |

| Sequence | PBM E-score |
| --- | --- |
| CTGTGAAA | 0.21 |
| ATAGTTCG | 0.0253 |
| AAATTCCT | 0.00581 |
| CGTGTCAG | 0.223 |
| ATAAGATC | -0.131 |
| CACAACCG | 0.107 |
| CAGATCCC | -0.0782 |
| CCTTCTTA | 0.263 |
| GGCAGCCA | -0.077 |
| ATGGACGA | -0.0659 |
| GCTCTAGA | -0.321 |
| CTACTTGA | 0.0707 |
| ATGTGGAC | -0.0682 |
| TAACACTA | 0.188 |
| ACCGGGAG | -0.119 |
| ATGTCTCC | 0.0109 |
| ACCAAAAC | 0.0416 |
| CGTGAAGA | -0.047 |
| CTGGACGC | -0.307 |
| GAATATCA | -0.328 |
| AGGACCGG | -0.238 |
| GGACCGGA | -0.397 |

| Sequence | PBM E-score |
| --- | --- |
| GTGGAATA | 0.0294 |
| ACTCCGCG | -0.273 |
| GACGAGCA | -0.216 |
| ACGACAGA | -0.138 |
| CGCCAAAA | -0.025 |
| ACTTCGAC | 0.0681 |
| CATGCTGG | -0.0121 |
| CTCTGATC | -0.0566 |
| ATCCAAGA | -0.0318 |
| TGAGATAA | 0.0186 |
| CTGTTACC | 0.173 |
| GCGTAGAC | 0.00486 |
| TCGACCAA | 0.0354 |
| GTGGCGTA | -0.0441 |
| TATTCCAA | 0.122 |
| ACCGCCAA | -0.161 |
| CATTCTTA | -0.0851 |
| AGGAACTG | 0.413 |
| ATGTTGTG | 0.333 |
| ACCGGCGC | -0.0888 |
| ATAATCAC | -0.0146 |
| TTACAAAA | 0.278 |

| Sequence | PBM E-score |
| --- | --- |
| AAGCCGAT | -0.0824 |
| GGCCCAGA | -0.411 |
| CCGTGCTC | -0.025 |
| GGTATGAC | -0.141 |
| ATATGTTC | 0.0319 |
| CCTCTGAA | -0.291 |
| CCTCGTCC | -0.234 |
| ACATAAAT | 0.217 |
| GGACTAAC | -0.231 |
| CAGTCGAG | -0.249 |
| AGGTCATA | -0.0537 |
| AGCCTAAC | 0.1 |
| GCCCCACC | -0.365 |
| CAATCCGA | -0.088 |
| AGTGGCCC | -0.247 |
| AAAGAATG | 0.154 |
| GACCTGGA | -0.167 |
| AACCTCCT | -0.166 |
| CCTGCGGC | -0.185 |
| AAACCACC | -0.21 |
